According to PubChem BioAssay (NCI):
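All cell lines were grown in 96-well plates and treated with compound for 48 hours. Abbreviation: GI50, concentration required for 50% inhibition of growth. TGI marks complete inhibition of growth.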

System: NCI-H322M lung
Assay: inhibition of tumour cell growth, NCI panel, 48 h

`COc1cc2nc(SCc3ccccc3)n(-c3ccc(Cl)cc3)c(=O)c2cc1OC` was tested. Which GI50 did it give?
The GI50 was 19.1 µM.

What about the TGI of the same molecule?
Its TGI is over 100 µM.

Which results are given for `COC(=O)C[C@](O)(CCC(C)C)C(=O)O[C@H]1C(OC)=C[C@@]23CCCN2CCc2cc4c(cc2[C@@H]13)OCO4`?
GI50: > 10.6 µM; TGI: > 28.9 µM
